# Test results from PMC4336329 (PLoS ONE, 2015).
# Among all 310,000 compounds or so, about 2,200 (0.71%) showed an effect of 50% or more. The effect is printed as a negative number. The list shows a part of the results.
# Target: human ether-à-go-go-related gene (hERG) potassium channel (human, UniProt Q12809)
# Assay: primary screen, population patch clamp on CHO cells stably expressing hERG
# Chain of human ether-à-go-go-related gene (hERG) potassium channel (Q12809 whole entry, looked up): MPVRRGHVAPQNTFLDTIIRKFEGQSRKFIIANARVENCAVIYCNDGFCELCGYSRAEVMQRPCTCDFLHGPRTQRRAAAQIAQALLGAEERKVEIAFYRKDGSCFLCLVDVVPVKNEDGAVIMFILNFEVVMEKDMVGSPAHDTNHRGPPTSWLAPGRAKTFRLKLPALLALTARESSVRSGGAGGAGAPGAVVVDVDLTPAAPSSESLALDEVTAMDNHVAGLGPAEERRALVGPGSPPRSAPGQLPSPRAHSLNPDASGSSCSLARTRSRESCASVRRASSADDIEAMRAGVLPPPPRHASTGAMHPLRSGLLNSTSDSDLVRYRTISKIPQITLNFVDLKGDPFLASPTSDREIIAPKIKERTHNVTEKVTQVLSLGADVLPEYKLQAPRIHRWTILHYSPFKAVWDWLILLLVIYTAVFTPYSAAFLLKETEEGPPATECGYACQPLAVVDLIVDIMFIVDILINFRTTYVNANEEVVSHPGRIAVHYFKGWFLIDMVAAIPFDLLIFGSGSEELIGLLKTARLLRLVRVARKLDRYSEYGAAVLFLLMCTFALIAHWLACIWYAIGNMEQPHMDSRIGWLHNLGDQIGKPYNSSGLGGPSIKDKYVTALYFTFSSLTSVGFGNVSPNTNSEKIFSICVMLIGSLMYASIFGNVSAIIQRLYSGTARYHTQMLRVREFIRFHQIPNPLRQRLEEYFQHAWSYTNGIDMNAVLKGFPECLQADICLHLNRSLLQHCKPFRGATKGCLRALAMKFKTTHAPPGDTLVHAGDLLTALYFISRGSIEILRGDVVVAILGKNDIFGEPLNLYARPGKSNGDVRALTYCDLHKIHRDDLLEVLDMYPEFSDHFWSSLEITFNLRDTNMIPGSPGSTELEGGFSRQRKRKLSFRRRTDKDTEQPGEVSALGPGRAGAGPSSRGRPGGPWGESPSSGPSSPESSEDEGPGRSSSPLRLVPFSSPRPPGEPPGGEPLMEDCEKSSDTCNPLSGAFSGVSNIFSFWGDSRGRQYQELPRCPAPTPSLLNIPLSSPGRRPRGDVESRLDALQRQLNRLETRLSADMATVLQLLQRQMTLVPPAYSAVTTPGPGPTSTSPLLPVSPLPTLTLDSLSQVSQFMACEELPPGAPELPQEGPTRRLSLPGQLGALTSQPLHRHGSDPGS
row,Compound,"hERG current change (%, negative = inhibition) at 1uM"
1,Cc1ccc(N(CC(O)CN2C(=O)NC(C)(C)C2=O)S(=O)(=O)c2ccc([N+](=O)[O-])cc2)cc1 (stereo not shown),-2.02%
2,Cc1c(Cl)cccc1NC(=S)NCc1cccs1,9.12%
3,Cc1ccc(CNC(=O)C2CCN(S(=O)(=O)c3ccc4nc5c(c(C(=O)O)c4c3)CC(C)CC5)CC2)cc1 (stereo not shown),-17.8%
4,O=C(O)c1nc(-c2ccccc2)n(-c2ccc(Cl)cc2)n1,11.2%
5,O=C(CCN1CCOCC1)Nc1c(-c2ccccc2)c2cc(Br)ccc2[nH]c1=O,-5.72%
6,O=c1c2ccsc2ncn1Cc1ccccc1F,0.665%
7,CN(CC(=O)Nc1cccc(F)c1)C(=O)c1ccc(NC2CC2)c([N+](=O)[O-])c1,-23.5%
8,Cc1cc(=O)oc2cc3c(cc12)OCCN3,10.6%
9,O=C(CSc1nnc(NC(=O)C2CC2)s1)Nc1ccccc1Cl,14.8%
10,CS(=O)(=O)c1sc(C(=O)NC(=S)Nc2ccc(OC(F)(F)F)cc2)c2c1C=CCC2,9.45%
11,O=S(=O)(Cc1cc(Cl)nc(-c2ccccc2)n1)c1ccccc1,8.68%
12,Cc1ccc(N2C(=O)C(Cl)=C(N3CCOCC3)C2=O)c(C)c1,17.3%
13,O=C(NCCc1ccccc1Cl)c1cc(COc2ccc(F)cc2F)on1,11.1%
14,COc1ccc(-c2cc(=O)oc(-c3cccc(C)c3)n2)cc1,13.7%
15,CCc1nc(-c2ccccc2O)n(-c2ccccc2)n1,9.75%
16,Cc1ccc(OCCCC(=O)Nc2ccc(S(=O)(=O)Nc3cc(C)on3)cc2)cc1,12.2%
17,CCN(CC)C1=NC(=[N+](CC)CC)c2ccccc21.[O-][Cl+3]([O-])([O-])[O-],-7.91%
18,O=C(O)C1[C@H]2C(=O)N(C3CCCC3)C[C@]23C=C[C@H]1O3 (stereo partly shown),0.602%
19,Cc1ccc(C(=O)COC(=O)c2cc(Cl)ccc2O)cc1[N+](=O)[O-],12.3%
20,CCn1c(SCC(=O)Nc2cc(C)on2)nc2c(c1=O)SCC2,12.7%
21,COc1ccc(N2CCN(C(=O)C3CC(=O)N(c4ccc(C)cc4)C3)CC2)cc1 (stereo not shown),-8.62%
22,Cc1ccc(CNC(=O)c2ccc(N3CCC4(CC3)CC(c3cccc(Br)c3)=NO4)c(NC(=O)c3ccccc3)c2)cc1,13.2%
23,COc1ccc(N(CC(=O)Nc2ccccc2C)S(=O)(=O)c2ccccc2[N+](=O)[O-])c(OC)c1,0.716%
24,O=Cc1cc(-c2ccccc2)[nH]c1-c1ccccc1,16.2%
25,COc1cc(-c2c(-c3ccc4c(c3)OCO4)noc2-c2ccsc2)ccc1F,5.96%
26,COC1CCN(C(=O)CC2C(=O)NCCN2CC2CCCCC2)CC1 (stereo not shown),9.82%
27,N#CC1=C(N)N2C(=C(C#N)C1c1cccc(Br)c1)Nc1ccccc12 (stereo not shown),8.63%
28,COc1ccc(CN2CC(C(=O)NCCc3ccccc3)CC2=O)cc1 (stereo not shown),-25.9%

row,Compound,"hERG current change (%, negative = inhibition) at 1uM"
1,Cc1cc(S(=O)(=O)NCCN2CCOCC2)c(C)s1.Cl,19.2%
2,O=C(O)c1ccc2c3n(nc2c1)-c1ccc(Cl)cc1CO3,11.4%
3,COC(=O)C1CN(C(=O)c2cccc(OC(F)F)c2)c2ccccc2O1 (stereo not shown),16.6%
4,O=C(Cc1csc(Nc2nc(=S)[nH]c3ccccc23)n1)NCc1cccc(Cl)c1,-4.52%
5,CC(C)CCOCC(=O)Nc1cccc(C(=O)O)c1,25%
6,COc1ccccc1N1CCN(CC(O)COc2c(OC)cccc2OC)CC1.Cl (stereo not shown),-9.62%
7,O=c1[nH]n(-c2ccccc2)c(=O)c(Cl)c1Cl,-0.931%
8,CCOC(=O)c1cc(C#N)c(N2CCCC2)nc1-c1ccccc1,-1.96%
9,CCN1CCN(CCn2c(=S)[nH]c3ccccc3c2=O)CC1,8.72%
10,CC(C)N(Cc1nccn1C)C(=O)c1cc(COc2ccc(F)cc2Cl)on1,-3.88%
11,COc1ccc(-c2nc(Cn3c(SCc4ccc(F)cc4)nc4ccncc43)c(C)o2)cc1OC,-3.36%
12,CCc1cccc(NC(=O)C(NC(=O)C2CCCCC2)C(C)C)c1 (stereo not shown),14%
13,Cc1ccc(N2CN=c3s/c(=C\c4cccnc4)c(=O)n3C2)cc1,-5.15%
14,O=C(Nc1ccc(N2CCOCC2)c(F)c1)c1ccncc1,6.63%
15,O=[N+]([O-])c1ccc(Sc2cccc3cccnc23)cc1,8.53%
16,O=C(c1cc(-c2ccccc2)nc2ccccc12)N1CCCC1,12.8%
17,O=C(CN1C(=O)C2CC=CCC2C1=O)OCCN1C(=O)c2ccccc2C1=O (stereo not shown),10.9%
18,CN(C)C(=O)c1c2c(nc3ccccc13)CCCC2,-1.79%
19,CCOC(=O)C1CCN(C(=O)C23CC4CC(CC(C4)C2)C3)CC1,9.59%
20,CN1CCN(NC(=O)c2cc(-c3cccc(Cl)c3)nc3ccccc23)CC1,0.482%
21,O=C(C1CCCO1)N1CCN(S(=O)(=O)c2cc(F)ccc2F)CC1 (stereo not shown),16.5%
22,Cc1ccc(C)c(OCCCC(=O)Nc2nccs2)c1,11.7%
23,COc1cccc(NC(=O)CCc2c(C)nc3nc(CNC(=O)c4cccc(F)c4)nn3c2C)c1,5.48%
24,COc1ccc(-c2nn(-c3ccccc3)cc2/C=N/Nc2ccc3ccccc3n2)cc1OC,7.59%
25,COc1ccc(NC(=O)Cc2coc3cc(C)ccc23)cn1,7.61%
26,COc1cccc(Oc2cn[nH]c2-c2ccc(OC)cc2O)c1,8.37%
27,CCCOc1ccccc1NS(=O)(=O)c1ccc2[nH]c(=O)[nH]c2c1,10.9%
